Screen size: about 360,000 compounds; about 6,000 (1.7%) were called active. Inconclusive means that the source gave no clear call. Such entries were picked first, then a sample of the others. Calls follow the shape of the dose curve; as a rule, active = well fitted cell-killing curve with a large enough effect; inconclusive = small, poorly fitted or top-dose-only effect, or effect the other way; inactive = flat fitted curve, though single readings scatter. Potencies of inconclusive entries are left out as doubtful fits.
Test: qHTS for induction of synthetic lethality in tumor cells producing 2HG: qHTS for the HT-1080-NT fibrosarcoma cell line;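 also: NT is the 2HG producing partner of a matched IDH1 knockdown line; nearly all actives have a fitted effect of over 55% in size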;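 as to activity, negative = less viability: 0% = DMSO-treated cells and -100% = media-only wells without cells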
Details: HT-1080-NT fibrosarcoma viability, CellTiter-Glo ATP luminescence, 48 h; activity, negative = less viability: at 46.1 µM (top of the series) unless noted
In short: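 Read-out is CellTiter-Glo luminescence after 10 minutes at room temperature, following 48 hours' compound treatment of HT-1080-NT cells (750 cells/well, RPMI, 5% FBS, 37 degrees C).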
Potency is read from the fitted curve at half-maximal effect; tags tell the direction and shape of the fitted curve.

Row | SMILES | Potency | activity, negative = less viability
1 | C[C@H](CO)N1C[C@H](C)[C@@H](CN(C)Cc2ccc(C(F)(F)F)cc2)OCc2cnnn2CCCC1=O | inactive | –
2 | CCN1CCCC1CN(Cc1cc2ccc(C)cc2[nH]c1=O)C(=S)Nc1ccc(OC)cc1 (centres undefined) | inconclusive [cytotoxic, single point] | –
3 | O=c1cc(-c2ccccc2Cl)oc2c(NS(=O)(=O)c3cc(Cl)cc(Cl)c3O)ccc(O)c12 | active: 3.26 µM | –
4 | COc1ccc(-c2csc(NC(=O)c3ccc(C(C)(C)C)cc3)c2C(=O)O)cc1 | inconclusive [cytotoxic, partial curve, poor fit] | –
5 | O=[N+]([O-])c1cccc(-c2csc(N/N=C/c3cccc(O)c3)n2)c1 | inconclusive [cytotoxic, single point] | –
6 | COc1ccc(/C=N/NC(=O)c2c(C)nc3ccc(Br)cn23)cc1OC | inconclusive [cytotoxic, full curve] | –
7 | Cc1cccc(N2CCN(Cc3ccc(Br)o3)CC2)c1C | inactive | –
8 | CCOc1ccc(NC(=O)Nc2cccn(Cc3ccccc3)c2=O)cc1 | inconclusive [cytotoxic, partial curve] | –
9 | O=S(=O)(c1ccc(Br)cc1Cl)N1CCCN(c2ccc(C(F)(F)F)cn2)CC1 | inactive | –
10 | COc1ccc2nc(C)cc(SCC(=O)N/N=C/c3cccc4ccccc34)c2c1 | active: 11.2 µM | –
11 | CC(=O)C1=C(O)C(=O)N(c2cccnc2)C1c1ccc(Cl)cc1 (centres undefined) | inactive | –
12 | Oc1[nH]c2ccccc2c1N=Nc1nc(Nc2ccccc2)nc(N2CCOCC2)n1 | inactive | –
13 | O=C(NCc1ccccc1)c1cc(C2COCCN2C(=O)c2cccs2)on1 (centres undefined) | inconclusive [rising, partial curve] | –
14 | CC(C)c1ccc(C(=O)NCCCN2CCN(CCCNC(=O)c3ccc(C(C)C)cc3)CC2)cc1 | active: 18.4 µM | –
15 | COc1ccc(CN(C)C[C@@H]2OCCCC[C@H](C)Oc3ccc(NC(=O)Nc4ccc(F)cc4)cc3C(=O)N([C@H](C)CO)C[C@H]2C)cc1 | active: 20.6 µM | –
16 | Cc1ccc2nc(-c3ccc(F)cc3)c(Cc3ccccc3C(F)(F)F)n2c1 | inconclusive [cytotoxic, single point] | –
17 | CN(CC(=O)Nc1ccc(Cl)c(C(F)(F)F)c1)C(=O)C1CC(=O)N(c2ccc3c(c2)OCCO3)C1 (centres undefined) | inconclusive [cytotoxic, single point] | –
18 | CCCCn1c(N)c(N(CC(C)C)C(=O)c2cccc(OCc3ccccc3)c2)c(=O)[nH]c1=O | – | inconclusive: -1.42% [cytotoxic]
19 | Cc1ccc(NC(=O)C2(C)CCCN(C(C)C)C2)cc1C (centres undefined) | inconclusive [rising, single point] | –

Source: PubChem BioAssay AID686970 (National Center for Advancing Translational Sciences (NCATS), 2013)
